Source: the supplement of paper PMC8728848
Some of the results follow.

Columns and labels:
Assay in all cases: glycan array binding signal (z-score within array); higher = stronger binding
Settings in all cases: glycan notation: IUPAC condensed, linker removed
[1] = molecular target: Man(a1-3)[Man(a1-6)]Man(a1-6)[Man(a1-2)Man(a1-3)]Man(b1-4)GlcNAc(b1-4)GlcNAc
How it was run: (§1)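 Columns mapping to the same glycan were averaged after glycan names were converted to IUPAC-condensed notation. The data come from 3228 arrays in the Consortium for Functional Glycomics database, limited to those with an available protein sequence. Binding is reported as a within-array Z-score averaged across arrays of one protein sequence and across linkers.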

[2] = molecular target: Man(a1-3)[Man(a1-6)]Man(a1-6)[Man(a1-3)]Man
How it was run: as §1

[3] = molecular target: Man(a1-3)[Man(a1-6)]Man(a1-6)[Man(a1-3)]Man(b1-4)GlcNAc(b1-4)GlcNAc
How it was run: as §1

[4] = molecular target: Man(a1-3)[Man(a1-6)]Man(b1-4)GlcNAc(b1-4)GlcNAc
How it was run: as §1

[5] = molecular target: Man(a1-3)[Man(a1-6)]Man(b1-4)GlcNAc(b1-4)[Fuc(a1-6)]GlcNAc
How it was run: as §1

Man(a1-6)Man = molecular target: Man(a1-6)Man
How it was run: as §1

Man(b1-4)GlcNAc = molecular target: Man(b1-4)GlcNAc
How it was run: as §1

MurNAc(b1-4)GlcNAc = molecular target: MurNAc(b1-4)GlcNAc
How it was run: as §1

Neu5Ac(a2-3)Gal = molecular target: Neu5Ac(a2-3)Gal
How it was run: as §1

[6] = molecular target: Neu5Ac(a2-3)Gal(b1-3)GalNAc
How it was run: as §1

[7] = molecular target: Neu5Ac(a2-3)Gal(b1-3)GalNAc(b1-3)Gal(a1-4)Gal(b1-4)Glc
How it was run: as §1

[8] = molecular target: Neu5Ac(a2-3)Gal(b1-3)GalNAc(b1-4)[Neu5Ac(a2-3)]Gal(b1-4)Glc
How it was run: as §1

[9] = molecular target: Neu5Ac(a2-3)Gal(b1-3)GalNAc(b1-4)[Neu5Ac(a2-8)Neu5Ac(a2-3)]Gal(b1-4)Glc
How it was run: as §1

[10] = molecular target: Neu5Ac(a2-3)Gal(b1-3)GalNAc6S
How it was run: as §1

[11] = molecular target: Neu5Ac(a2-3)Gal(b1-3)GlcNAc
How it was run: as §1

[12] = molecular target: Neu5Ac(a2-3)Gal(b1-3)GlcNAc(b1-2)Man
How it was run: as §1

[13] = molecular target: Neu5Ac(a2-3)Gal(b1-3)GlcNAc(b1-2)Man(a1-3)[GlcNAc(b1-4)][Neu5Ac(a2-3)Gal(b1-3)GlcNAc(b1-2)Man(a1-6)]Man(b1-4)GlcNAc(b1-4)GlcNAc
How it was run: as §1

[14] = molecular target: Neu5Ac(a2-3)Gal(b1-3)GlcNAc(b1-2)Man(a1-3)[Neu5Ac(a2-3)Gal(b1-3)GlcNAc(b1-2)Man(a1-6)]Man(b1-4)GlcNAc(b1-4)GlcNAc
How it was run: as §1

[15] = molecular target: Neu5Ac(a2-3)Gal(b1-3)GlcNAc(b1-3)Gal(b1-3)GlcNAc
How it was run: as §1

[16] = molecular target: Neu5Ac(a2-3)Gal(b1-3)GlcNAc(b1-3)Gal(b1-4)GlcNAc
How it was run: as §1

[17] = molecular target: Neu5Ac(a2-3)Gal(b1-3)GlcNAc(b1-3)GalNAc
How it was run: as §1

[18] = molecular target: Neu5Ac(a2-3)Gal(b1-3)GlcNAc(b1-4)Gal(b1-4)Glc
How it was run: as §1

[19] = molecular target: Neu5Ac(a2-3)Gal(b1-3)GlcNAc(b1-6)GalNAc
How it was run: as §1

[20] = molecular target: Neu5Ac(a2-3)Gal(b1-3)GlcNAc6S
How it was run: as §1

[21] = molecular target: Neu5Ac(a2-3)Gal(b1-3)[Fuc(a1-4)]GlcNAc
How it was run: as §1

[22] = molecular target: Neu5Ac(a2-3)Gal(b1-3)[Fuc(a1-4)]GlcNAc(b1-3)Gal(b1-3)[Fuc(a1-4)]GlcNAc
How it was run: as §1

[23] = molecular target: Neu5Ac(a2-3)Gal(b1-3)[Fuc(a1-4)]GlcNAc(b1-3)Gal(b1-4)[Fuc(a1-3)]GlcNAc
How it was run: as §1

[24] = molecular target: Neu5Ac(a2-3)Gal(b1-3)[GlcNAc(b1-6)]GalNAc
How it was run: as §1

[25] = molecular target: Neu5Ac(a2-3)Gal(b1-3)[Neu5Ac(a2-6)]GalNAc
How it was run: as §1

[26] = molecular target: Neu5Ac(a2-3)Gal(b1-3)[Neu5Ac(a2-6)]GlcNAc(b1-3)[Fuc(a1-3)[Gal(b1-4)]GlcNAc(b1-6)]Gal(b1-4)Glc
How it was run: as §1

[27] = molecular target: Neu5Ac(a2-3)Gal(b1-3)]Neu5Ac(a2-3)Gal(b1-4)]GlcNAc
How it was run: as §1

Neu5Ac(a2-3)Gal(b1-4)Glc = molecular target: Neu5Ac(a2-3)Gal(b1-4)Glc
How it was run: as §1

[28] = molecular target: Neu5Ac(a2-3)Gal(b1-4)GlcNAc
How it was run: as §1

[29] = molecular target: Neu5Ac(a2-3)Gal(b1-4)GlcNAc(b1-2)Man
How it was run: as §1

[30] = molecular target: Neu5Ac(a2-3)Gal(b1-4)GlcNAc(b1-2)Man(a1-3)[GlcNAc(b1-4)][Neu5Ac(a2-3)Gal(b1-4)GlcNAc(b1-2)Man(a1-6)]Man(b1-4)GlcNAc(b1-4)GlcNAc
How it was run: as §1

[31] = molecular target: Neu5Ac(a2-3)Gal(b1-4)GlcNAc(b1-2)Man(a1-3)[Neu5Ac(a2-3)Gal(b1-4)GlcNAc(b1-2)Man(a1-6)]Man(b1-4)GlcNAc(b1-4)GlcNAc
How it was run: as §1

[32] = molecular target: Neu5Ac(a2-3)Gal(b1-4)GlcNAc(b1-2)Man(a1-3)[Neu5Ac(a2-3)Gal(b1-4)GlcNAc(b1-2)Man(a1-6)]Man(b1-4)GlcNAc(b1-4)[Fuc(a1-6)]GlcNAc
How it was run: as §1

[33] = molecular target: Neu5Ac(a2-3)Gal(b1-4)GlcNAc(b1-2)Man(a1-3)[Neu5Ac(a2-6)Gal(b1-4)GlcNAc(b1-2)Man(a1-6)]Man(b1-4)GlcNAc(b1-4)GlcNAc
How it was run: as §1

B1: Als3-41 (Candida albicans) (protein)
chain: KTITGVFNSFNSLTWSNAATYNYKGPGTPTWNAVLGWSLDGTSASPGDTFTLNMPCVFKFTTSQTSVDLTAHGVKYATCQFQAGEEFMTFSTLTCTVSNTLTPSIKALGTVTLPLAFNVGGTGSSVDLEDSKCFTAGTNTVTFNDGGKKISINVDFERSNVDPKGYLTDSRVIPSLNKVSTLFVAPQCANGYTSGTMGFANTYGDVQIDCSNIHVGITKGLNDWNYPVSSESFSYTKTCSSNGIFITYKNVPAGYRPFVDAYISATDVNSYTLSYANEYTCAGGYWQRAPFTLRWTGYRNSDAGSNGIVIVATTRTVTDSTTAVTTLPFDPNRDKTKTIEILKPIPTTTITTSYVGVTTSYLTKTAPIGETATVIVD
- glycan array binding signal (z-score) [1]: -0.11
- glycan array binding signal (z-score) [2]: -0.173
- glycan array binding signal (z-score) [3]: -0.308
- glycan array binding signal (z-score) [4]: -0.254
- glycan array binding signal (z-score) [5]: -0.013
- glycan array binding signal (z-score) (Man(a1-6)Man): -0.022
- glycan array binding signal (z-score) (Man(b1-4)GlcNAc): 0.697
- glycan array binding signal (z-score) (MurNAc(b1-4)GlcNAc): 0.244
- glycan array binding signal (z-score) (Neu5Ac(a2-3)Gal): -0.322
- glycan array binding signal (z-score) [6]: 0.446
- glycan array binding signal (z-score) [7]: -0.312
- glycan array binding signal (z-score) [8]: -0.31
- glycan array binding signal (z-score) [9]: -0.243
- glycan array binding signal (z-score) [10]: -0.126
- glycan array binding signal (z-score) [11]: -0.305
- glycan array binding signal (z-score) [12]: -0.24
- glycan array binding signal (z-score) [13]: -0.135
- glycan array binding signal (z-score) [14]: -0.215
- glycan array binding signal (z-score) [15]: -0.289
- glycan array binding signal (z-score) [16]: -0.197
- glycan array binding signal (z-score) [17]: -0.256
- glycan array binding signal (z-score) [18]: -0.075
- glycan array binding signal (z-score) [19]: 1.27
- glycan array binding signal (z-score) [20]: 0.077
- glycan array binding signal (z-score) [21]: -0.339
- glycan array binding signal (z-score) [22]: -0.161
- glycan array binding signal (z-score) [23]: 0.498
- glycan array binding signal (z-score) [24]: 0.292
- glycan array binding signal (z-score) [25]: -0.123
- glycan array binding signal (z-score) [26]: -0.245
- glycan array binding signal (z-score) [27]: -0.353
- glycan array binding signal (z-score) (Neu5Ac(a2-3)Gal(b1-4)Glc): 1.23
- glycan array binding signal (z-score) [28]: -0.181
- glycan array binding signal (z-score) [29]: 0.213
- glycan array binding signal (z-score) [30]: -0.211
- glycan array binding signal (z-score) [31]: -0.218
- glycan array binding signal (z-score) [32]: -0.35
- glycan array binding signal (z-score) [33]: -0.392
